From publication PMC4076583 (The Journal of Experimental Medicine, 2014)

Target: recombinant human Galectin-9 (human, UniProt O00182 1-355)
Assay: SPR

Kd: ~0.085 µM
B1: human 4-1BB.Fc, full-length extracellular 4-1BB (CRD1-4, […]) fused to human IgG1 Fc (Fc fusion)
chain: not shown
